PubChem BioAssay AID927 (National Center for Advancing Translational Sciences (NCATS), 2007)
The whole screen tested about 60,000 compounds, of which about 65 (0.1%) were called active. The shares of active, inactive and inconclusive entries below differ from those in the screen. Calls come from the whole dose curve; as a rule, active = well fitted inhibition curve with a large enough effect; inconclusive = small, poorly fitted or top-dose-only effect; inactive = no such curve, though single readings can be large or run the other way. Potencies beside an inconclusive call are fits to weak or partial responses and may not hold up.
Note: nearly all actives have a fitted effect of over 60% in size.
Potency is the fitted concentration of half-maximal effect; tags give direction and shape of the fitted curve.
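Throughout, for activity change, negative = inhibition: plate controls were DMSO for no effect and NEM full inhibition control for full effect.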

These compounds were tested against Ubiquitin carboxyl-terminal hydrolase 2 (Homo sapiens) (UniProt O75604) (assay: qHTS Assay for Inhibitors of Ubiquitin-specific Protease USP2a). Details: USP2a enzymatic assay; Potency: qHTS inhibition; activity change, negative = inhibition: at 38.3 µM (top of the series).
Sequence of UniProt O75604 (O75604 whole entry, looked up): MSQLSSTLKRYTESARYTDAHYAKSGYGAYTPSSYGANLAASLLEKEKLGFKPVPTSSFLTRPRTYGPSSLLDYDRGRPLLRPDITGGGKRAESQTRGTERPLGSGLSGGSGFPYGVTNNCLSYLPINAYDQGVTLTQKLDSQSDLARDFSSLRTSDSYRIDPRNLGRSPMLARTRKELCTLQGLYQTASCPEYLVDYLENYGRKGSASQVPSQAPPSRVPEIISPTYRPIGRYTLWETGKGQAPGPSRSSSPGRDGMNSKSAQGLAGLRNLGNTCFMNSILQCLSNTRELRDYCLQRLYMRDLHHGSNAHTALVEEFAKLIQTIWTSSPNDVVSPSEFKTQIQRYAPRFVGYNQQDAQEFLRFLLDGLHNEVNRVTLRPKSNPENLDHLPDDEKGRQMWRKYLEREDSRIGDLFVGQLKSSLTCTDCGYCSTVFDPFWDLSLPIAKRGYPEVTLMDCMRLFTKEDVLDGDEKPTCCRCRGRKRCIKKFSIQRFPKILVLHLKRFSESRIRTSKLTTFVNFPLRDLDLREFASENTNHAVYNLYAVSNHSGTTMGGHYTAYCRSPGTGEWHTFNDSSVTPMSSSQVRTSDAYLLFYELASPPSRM
How it was run: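 Coupled readout: USP2-cleaved Ub-PLA2 (20nM final) turns over NBD C6-HPC (20uM final), Ex 460nm/Em 535nm after 2.5 h, time-zero read flagging artifacts. Enzyme (20nM final, pH 8.0 Tris) given 30 min RT with compound first; NEM defines full inhibition.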
For `O=c1cnc2cnc(Nc3ccccc3)nc2n1C1CC1`, the Potency was inconclusive: 10 µM [inhibitor, single point]. With `CCOC(=O)C1CCN(C(=O)c2cn(-c3ccccc3)nc2-c2cccnc2)CC1` the Potency was inconclusive: 5.01 µM [inhibitor, single point]. `O=C1c2[nH]nc(-c3ccccc3O)c2C(c2cccc(Cl)c2)N1Cc1ccco1` (centres undefined) was tested, and the Potency was inconclusive: 25.1 µM [inhibitor, single point]. In the case of `Cc1nn(C(C)(C)C)c(OC(=O)C2CCCC2)c1S(=O)(=O)c1ccccc1`, the Potency is reported as inconclusive: 12.6 µM [inhibitor, partial curve]. With `COc1cc(N)ccc1NC(=O)c1cccs1` the activity change, negative = inhibition was inconclusive: -35.6% [inhibitor]. `O=C(O[C@@H]1Cc2c(O)cc(O)cc2OC1c1ccc(O)c(O)c1)c1cc(O)c(O)c(O)c1` (some centres undefined) was tested, and the Potency was inconclusive: 25.1 µM [inhibitor, single point]. For `CC1CCC(C(C)C)C(OC(=O)CSc2n[nH]c(=O)[nH]c2=O)C1` (centres undefined), the Potency was inconclusive: 10 µM [inhibitor, partial curve]. `COc1ccc(OC)c(NC(=O)CN2C(=O)c3ccccc3S2(=O)=O)c1` was tested, and the activity change, negative = inhibition was inactive: 2.63% [at 7.66 µM]. For `CCOc1ccc(-c2n[nH]c(C)c2Oc2ccc(OC)cc2)c(O)c1`, the Potency was inconclusive: 25.1 µM [inhibitor, single point]. In the case of `CCCCOn1c(C)c(C(=O)OCC)c2c3nonc3ccc21`, the Potency is reported as inconclusive: 25.1 µM [inhibitor, single point]. `Cc1ccc(C)c(Cn2nnc3c(=O)[nH]c(C(=O)NCC4CCCO4)nc32)c1` (centres undefined) was tested, and the Potency was inconclusive: 12.6 µM [inhibitor, partial curve]. With `CN1CCCC2(CCN(C(=O)c3cnccn3)CC2)C1` the Potency was inconclusive: 12.6 µM [inhibitor, single point]. For `COc1ccccc1-c1nn2c(C3COc4ccccc4O3)nnc2s1` (centres undefined), the Potency was inconclusive: 25.1 µM [inhibitor, single point]. For `Cc1onc(-c2ccccc2Cl)c1C(=O)Nc1cccc2nsnc12`, the “activity change, negative = inhibition” value was inactive: -10.8%. In the case of `O=C(Nc1ccc(C2CCCCC2)cc1)C1CCN(c2ncccn2)CC1`, the Potency is reported as inconclusive: 2 µM [inhibitor, full curve, poor fit]. `CN(c1ccc(O)cc1)c1nc(-c2ccccc2)cs1` was tested, and the Potency was inconclusive: 25.1 µM [inhibitor, single point]. In the case of `CCOC(=O)c1[nH]c2cc(OC)c(OC)cc2c1NC(=O)CN(C)C1CCCCC1`, the Potency is reported as inconclusive: 25.1 µM [inhibitor, single point]. In the case of `CCOC(=O)c1ccc2ncc(C(=O)OCC)c(NCc3ccco3)c2c1`, the “activity change, negative = inhibition” value is reported as inactive: 15.3%. `CCCCn1c(=O)n(C)c(=O)c2c(C(F)(F)F)cc(-c3ccncc3)nc21` was tested, and the “activity change, negative = inhibition” value was inactive: -3.76%. With `CCCCc1nc2ccccc2c(NC(=O)CN2CCN(C)CC2)c1CCC` the Potency was inconclusive: 31.6 µM [inhibitor, single point]. For `CCCOc1nc2c(c(=O)n(C)c(=O)n2C)n1CCC`, the Potency was inconclusive: 3.98 µM [inhibitor, single point]. For `COc1ccc(C(=O)N(CN2CCCC2=O)c2nccs2)cc1OC`, the Potency was inconclusive: 25.1 µM [inhibitor, single point]. In the case of `COc1cccc(-c2ccc3ncnc(Nc4ccccc4)c3c2)c1`, the “activity change, negative = inhibition” value is reported as inactive: 186%. With `CCS(=O)(=O)n1nc(-c2ccco2)nc1SC` the Potency was inconclusive: 10 µM [inhibitor, single point]. With `C=CC(C1=CC(=O)C(OC)=C(OC)C1=O)c1ccccc1` (centres undefined) the Potency was inconclusive: 10 µM [inhibitor, partial curve]. `CC(C)(C)c1ccc(Cn2nnc3c(=O)[nH]c(C4CCN(C(=O)Cc5cccs5)CC4)nc32)cc1` was tested, and the Potency was inconclusive: 20 µM [inhibitor, single point]. In the case of `Cc1cccc(CNc2ccnc(-c3ccc(N(C)C)cc3)n2)c1`, the Potency is reported as inconclusive: 25.1 µM [inhibitor, single point]. For `C=CCc1ccccc1OC[C@H](O)CNC(C)C`, the Potency was “inactive”. For `CCCOC(=O)c1ccc(Oc2c(-c3ccc(OCC)cc3O)n[nH]c2C)cc1`, the Potency was inconclusive: 15.8 µM [inhibitor, single point]. For `O/N=C1/CCCCc2sccc21`, the Potency was inconclusive: 2.51 µM [inhibitor, partial curve]. `Cc1nc2cncnc2n(Cc2ccccc2)c1=O` was tested, and the “activity change, negative = inhibition” value was inactive: 30.5%. For `CC1CC(C)(C)Nc2ccc(OC(=O)c3ccco3)cc21` (centres undefined), the Potency was inconclusive: 5.01 µM [inhibitor, single point]. `COc1ccc(-c2cc(C(F)(F)F)n3nc(C(=O)NCc4ccco4)cc3n2)cc1` was tested, and the Potency was inconclusive: 3.98 µM [inhibitor, single point]. With `Nc1ccc(O)c(C(=O)O)c1` the “activity change, negative = inhibition” value was inactive: -3.87% [at 17.1 µM]. `CCCOC(=O)c1ccc(Oc2cn[nH]c2-c2ccc(OCC)cc2O)cc1` was tested, and the Potency was inconclusive: 20 µM [inhibitor, single point]. With `Cc1ccc(Cn2nnc3c(=O)[nH]c(C4CCN(S(=O)(=O)c5cc(C)ccc5C)CC4)nc32)cc1` the “activity change, negative = inhibition” value was inactive: 72.4%. For `CN(C)c1ccc(-c2nc(-n3ccnc3)c3ccccc3n2)cc1`, the Potency was inconclusive: 25.1 µM [inhibitor, single point]. For `COC(=O)Cc1[nH]nc2c1C(c1c[nH]c3ccccc13)C(C#N)=C(N)O2` (centres undefined), the Potency was inconclusive: 3.98 µM [inhibitor, full curve]. In the case of `CCN(CC)C(=O)c1cc2cc(Br)ccc2oc1=O`, the Potency is reported as inconclusive: 12.6 µM [inhibitor, single point]. In the case of `COc1ccc2[nH]cc(CCNc3ccnc(-c4ccc(N(C)C)cc4)n3)c2c1`, the Potency is reported as inconclusive: 20 µM [inhibitor, single point]. In the case of `COc1cc(NS(=O)(=O)c2ccc(OC)c(C)c2C)c(OC)cc1Cl`, the Potency is reported as inconclusive: 25.1 µM [inhibitor, single point]. With `CC(NC(=O)C1CC2CCCC(C1)C2=O)c1ccccc1` (centres undefined) the Potency was inconclusive: 5.01 µM [inhibitor, single point]. For `Cc1c(C)c2c(c(C)c1O)CC[C@@](C)(CCC[C@@H](C)CCC[C@@H](C)CCCC(C)C)O2`, the Potency was active: 7.94 µM. For `CCSc1nc2c(c(=O)n1Cc1ccccc1)SC(C)C2` (centres undefined), the Potency was inconclusive: 25.1 µM [inhibitor, single point].
